Columns and labels:
Assay in all cases: BLI, His-tagged target on Ni-NTA
[1] = target: His-tagged MPER peptide (HIV-1)
[2] = target: gp120 subunit 93TH057 (HIV-1)
soluble CD4 = target: soluble CD4

Substance | Kd [1] [pM] | koff [1] [s⁻¹] | kon [1] [M⁻¹ s⁻¹] | Kd [2] [pM] | koff [2] [s⁻¹] | kon [2] [M⁻¹ s⁻¹] | Kd (soluble CD4) [pM]
T-01 MB IgG2 WT | < 1 | < 1e-07 | 485000 | < 1 | < 1e-07 | 465000 | 
T-02 MB |  |  |  |  |  |  | < 1
